# “And” between values parts separate entries of the source, which are not always exact repeats. Equal values may be shown once. In all, about 48,000 compounds went through this assay and about 1,200 (2.5%) were called active. Inconclusive results (about 2%) are left out.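 How the source made its calls: active means activation of at least 60% and not above a set upper limit (about 1 call in 100 departs from these limits); inconclusive means activation of 40% to 60%, or above that upper limit; inactive means activation under 40%.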 The list shows a part of the results.
# Target: Probable G-protein coupled receptor 32 (Homo sapiens) (UniProt O75388)
# UniProt O75388, sequence (O75388 whole entry, looked up): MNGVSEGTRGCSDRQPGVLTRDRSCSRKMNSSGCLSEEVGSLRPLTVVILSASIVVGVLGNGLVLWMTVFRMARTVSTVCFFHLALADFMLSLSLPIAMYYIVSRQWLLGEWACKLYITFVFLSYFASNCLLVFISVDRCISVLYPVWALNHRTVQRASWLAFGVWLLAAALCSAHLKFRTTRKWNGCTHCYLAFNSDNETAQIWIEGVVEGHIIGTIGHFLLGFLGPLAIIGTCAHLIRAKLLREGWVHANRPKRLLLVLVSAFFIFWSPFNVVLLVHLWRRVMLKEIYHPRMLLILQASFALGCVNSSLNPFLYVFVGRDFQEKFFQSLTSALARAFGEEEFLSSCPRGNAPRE
# Assay: qHTS for Agonists of Human Resolvin D1 Receptor DRV1; further: 0% is about no effect
# Settings: CHO-K1 GPR32 beta-arrestin PathHunter luminescence, 90 min; at 76.9 µM; active compounds read high; zero percent set by DMSO-only wells
# How it was run: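 Step 1: seed CHO-K1 GPR32 beta-arrestin cells, 2,500/well, overnight at 37 °C. Step 2: add compounds, 90 min at 37 °C. Step 3: detection reagent, 1 h ambient, then luminescence.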
row,Structure (SMILES),activation
1,CC1=Nc2cc(C(=O)NC3CCCC3)ccc2Sc2ccc(Cl)cc21,inactive: -6.99%
2,CCOC(=O)c1ccc(Nc2nc3ccccc3n3c(C)nnc23)cc1,inactive: 1.67%
3,CCOC(=O)c1cccc(NC(=O)CC2C(=O)N(c3ccc(F)cc3)C(=O)N2Cc2cccc(OC)c2)c1 (configuration not stated),inactive: -10.7%
4,CCOc1ccc(-c2noc(CSc3nnc(Cc4ccccc4)n3-c3ccc(F)cc3)n2)cc1,inactive: -26.8%
5,CCOCCc1nn2c(=O)cc(COC(=O)c3ccccc3NC(=O)CC(C)C)nc2s1,inactive: -12.5%
6,COc1ccc(N(C)S(=O)(=O)c2ccc3c(c2)n(C)c(=O)c(=O)n3C)cc1,inactive: -1.28%
7,COc1cccc(C(=O)Nc2c3c(nn2-c2ccc(C)cc2C)CS(=O)(=O)C3)c1OC,inactive: -7.25%
8,Cc1cccc(N2CCN(c3ncnc4c3cnn4-c3ccc(Cl)cc3)CC2C)c1 (configuration not stated),inactive: 25.2%
9,COC(=O)c1scc(-c2ccc(C)cc2)c1S(=O)(=O)N1CCN(c2ccccc2F)CC1,inactive: -9.9%
10,O=C(Cn1c(-c2cccs2)cc2cc(F)ccc21)N1CCCCC1,inactive: -12.1%
11,Cc1ccc(C(=O)c2sc(Nc3ccc(F)cc3)nc2N)c(C)c1,inactive: -20.7%
12,CC1=C(c2ccc(C)cc2)S(=O)(=O)N(Cc2ccc(C(=O)NCc3ccccc3F)cc2)C1=O,inactive: 3.83%
13,Cc1ccc2c(c1)C(C)(c1ccccc1)CC(C)(C)N2C(=O)c1ccc(F)cc1 (configuration not stated),inactive: -14.1%
14,COc1ccc(-c2nc(CNC(=O)NC3CCCCC3)c(C)o2)c(OC)c1,inactive: 31.5%
15,O=C1CCCc2[nH]c(=O)c(-c3nc(-c4cccc([N+](=O)[O-])c4)cs3)cc21,inactive: 18.9%
16,O=C(CCCn1c(=O)[nH]c2ccccc2c1=O)N1CCN(c2ccccc2)CC1,inactive: -4.99%
17,CCOC(=O)c1cc2c(=O)n3ccccc3nc2n(Cc2ccco2)c1=NC(=O)c1ccc(F)cc1,inactive: -25.9%
18,O=C(CN1C(=O)COc2ccc(S(=O)(=O)N3CCOCC3)cc21)N1CCN(c2ccc(Cl)cc2)CC1,inactive: -21%
19,O=S(=O)(NCCc1cn2ccsc2n1)c1ccc(Cl)cc1,inactive: -8.16%
20,CCCCCCc1cc2cc(-c3cn4c(n3)sc3cc(OC)ccc34)c(=O)oc2cc1O,inactive: 11.5%
21,COc1cc(OC)c(NC(=O)Cn2cnc3c(nc4n3CCCCC4)c2=O)cc1Cl,inactive: 27.8%

row,Structure (SMILES),activation
1,CCN(CCCNC(=O)Cn1ncc2c3ccccc3n(C)c2c1=O)c1cccc(C)c1,inactive: 18.2%
2,Cc1ccccc1C(=O)n1nc(-c2cccnc2)nc1NCc1ccc(F)cc1,inactive: -33.7%
3,O=C(Nc1cccc(Cl)c1)c1cc(S(=O)(=O)N2CCC3(CC2)OCCO3)ccc1F,inactive: -24.3%
4,CCOC(=O)c1ccccc1NC(=O)COc1cc(=O)n(CC)c2ccccc12,inactive: -4.06%
5,Cc1cc(OCC(=O)Nc2nc3c(s2)CCCC3)cc(C)c1Cl,inactive: -11.3%
6,O=C(CCC1N=C2c3ccccc3N=C(SCc3ccc(Cl)cc3)N2C1=O)NC1CCCCC1 (configuration not stated),inactive: -18.1%
7,CCOc1ccccc1NC(=O)Cn1c(=O)n(Cc2ccccc2)c(=O)c2c3c(sc21)CN(C(C)=O)CC3,inactive: -6.94%
8,COc1ccc(Cl)cc1NC(=O)c1sc2nc3c(cc2c1N)CN(C)CC3,inactive: 48.6%
9,Cc1cccc(C)c1NC(=O)Cn1c(=O)cc(C)c2c(C)nn(-c3cccc(Cl)c3C)c21,inactive: -9.37%
10,COc1ccc(NC(=O)CC(C)S(=O)(=O)c2ccc3c(c2)NC(=O)CO3)cc1OC (configuration not stated),inactive: 0.952%
11,O=C(CN1CCN(C2CCCCC2)C(=O)C1=O)Nc1ccc(Cl)cc1,inactive: 11.5%
12,CCn1cc(C(=O)NCCc2ccccc2)c(=O)c2cc(S(=O)(=O)N3CCc4ccccc4C3)ccc21,inactive: -12.9%
13,O=S(=O)(NCCc1csc2nc(-c3ccc(Cl)cc3)nn12)c1ccc2c(c1)OCCO2,inactive: 10.9%
14,CCCN(CCC)CCCNC(=O)c1cn(C)c2ccc(S(=O)(=O)N3CCOCC3)cc2c1=O,inactive: -6.68%
15,CCCn1c2ccccc2c2cnn(CC(=O)NCCCN(Cc3ccccc3)C(C)C)c(=O)c21,inactive: -13.1%
16,CC(C)c1ccc(NC(=O)CN2C(=O)COc3ccc(S(=O)(=O)N4CCOCC4)cc32)cc1,inactive: 1.15%
17,CCC(C)NC(=O)CN1C(=O)c2cccnc2Oc2ccc(C)cc21 (configuration not stated),inactive: -19.8%
18,COc1ccc(CCNc2nc(SCc3cccc(F)c3)nc3ccccc23)cc1OC,inactive: -3.62%
19,COC(=O)c1ccc2c(=O)n(CCCCCC(=O)NCc3ccc(OC)cc3)c(=O)[nH]c2c1,inactive: -25%
20,COc1ccc(Nc2cc(C(=O)NCCCN(C)C3CCCCC3)c3ccccc3n2)c(OC)c1,inactive: -17.7%
21,COc1ccc(-c2cc(C)no2)cc1S(=O)(=O)N1CCOc2ccc(Cl)cc21,inactive: -18.5%

row,Structure (SMILES),activation
1,Cc1nn(-c2ccc(N3CCOCC3)nn2)c(C)c1CCC(=O)Nc1ccc(F)cc1F,inactive: -8.41%
2,COc1ccc(NC(=O)C2CCCN(S(=O)(=O)c3c(C)[nH]c(=O)[nH]c3=O)C2)cc1Cl (configuration not stated),inactive: 5.36%
3,O=C(CSc1nccn1Cc1ccc(Cl)cc1)Nc1ccc2c(c1)OCO2,inactive: -13.7%
4,Cc1ccc(C)c(NC(=O)c2ccc3c(c2)CCN3S(=O)(=O)c2ccccc2)c1,inactive: -12%
5,CCC(Sc1nc2ncccc2o1)C(=O)Nc1cccc(C)c1 (configuration not stated),inactive: -34%
6,COc1ccc2oc(=O)c(-c3nc(-c4ccc(C)c(C)c4)cs3)cc2c1,inactive: 15.7%
7,Cc1cc(C)cc(OCCSc2nc(-c3cccs3)nc3cc(=O)[nH]n23)c1,inactive: 7.03%
8,CCc1cc2c(cc3c(=O)n(CC(=O)NCCc4ccccc4)ncn32)s1,inactive: 5.07%
9,O=C(Nc1ccc(Cl)c(C(F)(F)F)c1)C(Cc1ccccc1)NS(=O)(=O)c1cccc2nsnc12 (configuration not stated),inactive: 4%
10,CCc1ccc(C2c3c(-c4ccccc4)n[nH]c3C(=O)N2c2ccc(C(=O)O)cc2)cc1 (configuration not stated),inactive: 28%
11,C[C@H]1NCc2cc(-c3ccc4c(=O)c(C(=O)O)cn(C5CC5)c4c3OC(F)F)ccc21,inactive: -6.4%
12,C[N+]1(CC2COC(c3ccccc3)(c3ccccc3)O2)CCCCC1 (configuration not stated),inactive: -16.3%
13,O=C(CN1N=C(c2ccccc2)CCC1=O)NCc1ccc(F)cc1Cl,inactive: -14.2%
14,COc1cccc(-n2cc(C(=O)NCc3ccc(C)cc3)c3ccccc3c2=O)c1,inactive: -27.8%
15,COc1ccc(CNC(=O)Cn2ncc3c(=O)oc4ccc(C)cc4c32)c(OC)c1,inactive: 2.61%
16,Cc1cc(=O)n2[nH]c(NC(=O)c3cccc(Cl)c3)nc2n1,inactive: 38.3%
17,COc1ccccc1CCNC(=O)CCCn1c(=O)c2cccn2c2cccnc21,inactive: -18.2%
18,Cc1c(C(=O)NCc2ccc(OC(C)C)cc2)sc2ncnc(N(C)C3CCCCC3)c12,inactive: -20.2%
19,CC1=Nc2cc(C(=O)N3CCCCC3)ccc2Sc2ccc(C)cc21,inactive: 11.5%
20,CC#C[C@]1(O)CC[C@H]2[C@@H]3CCC4=CC(=O)CCC4=C3[C@@H](c3ccc(N(C)C)cc3)C[C@@]21C,inactive: -13% and inactive: -47%
21,CCCC(=O)Nc1nnc(SCc2cc(=O)n3cccc(C)c3n2)s1,inactive: 1.18%

row,Structure (SMILES),activation
1,COc1ccc(-c2nc(CN3CCC(C(=O)NCc4ccc(F)cc4)CC3)c(C)o2)cc1OC,inactive: -6.74%
2,COc1ccc(CCC(=O)NC2CC(=O)N(c3ccccc3)C2)cc1 (configuration not stated),inactive: -12%
3,CCOC(=O)c1c(NC(=O)/C=C/c2ccc(Cl)cc2)sc2c1CCC(C)C2 (configuration not stated),active: 79.4%
4,CCOC(=O)c1c(C)oc2nc(C)nc(N3CCN(c4cccc(C(F)(F)F)c4)CC3)c12,inactive: -16%
5,COc1ccc(C2CC(=O)N(CC(=O)Nc3ccc(C(C)=O)cc3)c3ccccc3S2)cc1OC (configuration not stated),inactive: -3.29%
6,CCCN(CCC)CCNC(=O)c1nn(C)c2c1CS(=O)(=O)c1ccccc1-2,inactive: -11.5%
7,O=C(NCC(c1ccc2c(c1)OCO2)N1CCN(c2ccccc2F)CC1)c1ccccc1F (configuration not stated),inactive: -37.4%
8,Cc1ccccc1C(=O)n1nc(-c2ccco2)nc1NCc1cccs1,inactive: -18.1%
9,Cc1ccc2[nH]c(CSc3nnc(NC(=O)COc4ccc(F)cc4)s3)cc(=O)c2c1,inactive: 11.3%
10,COc1cc(Cl)c(C)cc1NC(=O)c1nn(C)c2c1CSc1ccccc1-2,inactive: -8.49%
11,O=C(NCc1nc(-c2ccccc2)no1)c1ccco1,inactive: -4.08%
12,COc1cc(SC)ccc1C(=O)N1CCC(Cc2ccccc2)CC1,inactive: -10.2%
13,O=C(CCCCn1c(=O)c2ccccc2n(Cc2cccc(Cl)c2)c1=O)NCc1ccc2c(c1)OCO2,inactive: -7.73%
14,COc1ccc(CNC(=O)c2cc(-c3ccc(Cl)cc3)n[nH]2)cc1,inactive: 0.415%
15,CCc1ccc(-n2nc(C)c3c(C)cc(=O)n(CC(=O)N(CC)Cc4ccccc4)c32)cc1,inactive: 4.77%
16,CCc1ccc(C(=O)c2cn(Cc3ccccc3)c3cc(OC)c(OC)cc3c2=O)cc1,inactive: -2.96%
17,O=C(COc1ccc(F)cc1)OCc1cc(=O)n2nc(C3CC3)sc2n1,active: 96.8%
18,Cc1ccc(CCNC(=O)C2CCCN(S(=O)(=O)c3ccc4c(c3)oc(=O)n4C)C2)cc1 (configuration not stated),inactive: -5.41%
19,COc1ccccc1NC(=O)CSc1nc(-c2cccc(Cl)c2)nc2c1Cc1c(CO)cnc(C)c1O2,inactive: 2.1%
